According to paper PMC4336329 (PLoS ONE, 2015):
In all, about 310,000 compounds went through this assay and about 14,000 (4.5%) showed an effect of 50% or more. Effects have a minus sign here. Some of the results follow.

molecular target: human ether-à-go-go-related gene (hERG) potassium channel (human, UniProt Q12809); assay: primary screen, population patch clamp on CHO cells stably expressing hERG
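Further: peak tail current of the secondary pulse compared with the same well before compound.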

Sequence of human ether-à-go-go-related gene (hERG) potassium channel (Q12809 whole entry, looked up): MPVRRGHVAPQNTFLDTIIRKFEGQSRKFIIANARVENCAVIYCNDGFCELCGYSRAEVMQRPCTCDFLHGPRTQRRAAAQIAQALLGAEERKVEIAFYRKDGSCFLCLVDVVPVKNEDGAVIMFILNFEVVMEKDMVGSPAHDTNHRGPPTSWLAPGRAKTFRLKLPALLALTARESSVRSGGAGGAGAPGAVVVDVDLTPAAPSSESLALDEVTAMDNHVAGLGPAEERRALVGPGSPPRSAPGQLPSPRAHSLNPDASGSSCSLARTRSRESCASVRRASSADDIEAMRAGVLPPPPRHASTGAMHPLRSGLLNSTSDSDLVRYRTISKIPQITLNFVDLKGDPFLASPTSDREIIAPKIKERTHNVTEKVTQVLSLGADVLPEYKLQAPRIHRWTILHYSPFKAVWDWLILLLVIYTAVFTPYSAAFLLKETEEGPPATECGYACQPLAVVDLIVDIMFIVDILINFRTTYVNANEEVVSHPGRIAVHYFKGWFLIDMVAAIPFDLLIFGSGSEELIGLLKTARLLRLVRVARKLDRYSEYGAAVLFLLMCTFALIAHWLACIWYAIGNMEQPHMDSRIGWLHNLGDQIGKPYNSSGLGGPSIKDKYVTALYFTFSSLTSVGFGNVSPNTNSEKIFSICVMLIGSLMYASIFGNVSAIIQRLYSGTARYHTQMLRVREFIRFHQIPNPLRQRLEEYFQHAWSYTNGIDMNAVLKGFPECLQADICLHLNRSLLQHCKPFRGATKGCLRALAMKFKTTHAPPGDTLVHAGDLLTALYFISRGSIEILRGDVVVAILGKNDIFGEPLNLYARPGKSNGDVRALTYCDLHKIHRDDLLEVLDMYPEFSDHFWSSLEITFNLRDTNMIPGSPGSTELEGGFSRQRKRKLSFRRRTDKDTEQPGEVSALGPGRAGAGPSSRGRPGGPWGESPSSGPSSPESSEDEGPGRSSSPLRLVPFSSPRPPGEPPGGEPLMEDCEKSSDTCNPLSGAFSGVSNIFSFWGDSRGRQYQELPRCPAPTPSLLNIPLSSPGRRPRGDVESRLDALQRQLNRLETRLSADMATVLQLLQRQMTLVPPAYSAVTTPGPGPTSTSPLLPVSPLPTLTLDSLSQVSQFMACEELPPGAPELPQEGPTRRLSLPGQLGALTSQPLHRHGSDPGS

Row | Compound | hERG current change (%, negative = inhibition) at 10uM [%]
1 | COc1ccc(NC(=O)C2CCCN(S(=O)(=O)c3cccc4nonc34)C2)cc1 (centres unmarked) | 34.7
2 | CC(=O)Nc1nc2c(C)cc(NC(=O)C3CCCCC3)cc2s1 | 3.53
3 | Cc1ccc(NC(=O)Cn2ccnc2)cc1C | -0.47
4 | COc1ccc(C[C@H](N)C(=O)N[C@H]2[C@@H](O)[C@H](n3cnc4c(N(C)C)ncnc43)O[C@@H]2CO)cc1.Cl | -5.25
5 | CCCCOCCCNS(=O)(=O)Cc1ccccc1 | -14.5
6 | COc1ccc(CNC(=O)C(C)OC(=O)CCN2C(=O)C3CC=CCC3C2=O)cc1 (centres unmarked) | -10.6
7 | Cc1ccccc1C1CC(c2ccc(F)cc2)Nc2nc(N)nn21 (centres unmarked) | -27.2
8 | Cc1cccc(C(=O)OC(C)CN2CCCC2)c1.Cl (centres unmarked) | 10.5
9 | Cc1nc2sc3c(c2c(=O)o1)CCCC3 | -7.03
10 | O=C(NC(=S)NNS(=O)(=O)c1ccccc1)c1cccnc1 | 28.1
11 | COc1cccc(CNC(=S)NC2CC2)c1 | 24.9
12 | CCOC(=O)Cc1csc(NC(=O)/C=C/c2ccccc2Cl)n1 | 2.82
13 | Cc1onc(-c2ccccc2)c1CNC(=O)C1COc2ccccc2O1 (centres unmarked) | -23
14 | O=C(Cn1cnc2cc([N+](=O)[O-])ccc2c1=O)NCc1ccccc1 | -8.19
15 | CCOC(=O)C(NC(C)=O)(NC(C)C)C(F)(F)F (centres unmarked) | 16.5
16 | CCOC(=O)N1CCC(N2CCCC(C(=O)c3cc(C)c(OC)c(C)c3)C2)CC1 (centres unmarked) | -57.3
17 | COc1ccc(C)cc1NC(=O)C1COc2ccccc2O1 (centres unmarked) | 14.9
18 | CC(C)C(=O)Nc1ccc(N2CCN(c3ccc(F)cc3)CC2)cc1 | 16.1
19 | CSCC[C@H](NC(=O)N1CCn2c1nc1ccccc12)C(=O)N[C@@H](C(=O)O)c1ccccc1 | 4.3
20 | COc1cccc(C2=NOC(C(=O)Nc3ccc(C(C)=O)cc3)C2)c1 (centres unmarked) | -25.2
21 | CC1CC(C)CN(CC(=O)N2CCOCC2)C1.Cl (centres unmarked) | 0.0259
22 | COC(=O)c1ccc(C(=O)N(C)C2CCCN(Cc3ccccc3F)C2)cc1 (centres unmarked) | -2.39
23 | CC(C(=O)OCC(=O)Nc1ccc(S(=O)(=O)N2CCCCC2)cc1)N1C(=O)c2ccccc2C1=O (centres unmarked) | -16.4

Row | Compound | hERG current change (%, negative = inhibition) at 10uM [%]
24 | Cc1ccc(NC(=O)c2cccc(S(=O)(=O)N(C)c3ccccc3)c2)cc1S(=O)(=O)N1CCOCC1 | 9.04
25 | Cc1ccc(NC(=O)COC(=O)C2CC2)c(Br)c1 | 8.63
26 | Cn1c(=O)c2c(nc(CN3CCC(C(N)=O)CC3)n2Cc2ccccc2Cl)n(C)c1=O | 1.84
27 | Cc1ccc(C2N(c3nccs3)C(=O)C3CCCN32)cc1 (centres unmarked) | -4.54
28 | O=C(Nc1ccc2nc(-c3ccccc3)[nH]c2c1)c1cccs1 | -23.9
29 | COC(=O)CCN(C(=O)c1cccc(OC(C)=O)c1)c1ccccn1 | 4.73
30 | O=S(=O)(NC1CCSc2ccccc21)c1ccc(Cl)nc1 (centres unmarked) | -18.1
31 | COc1ccc2c(C)cc3n[nH]c(=S)n3c2c1 | 12.9
32 | CC1/C(=N/O)CC(c2ccccc2)N(C)C1c1ccccc1 (centres unmarked) | 14.3
33 | CNC(=S)NNC(=O)Cn1ccc(C)n1 | 1.51
34 | Cc1ccc(Nc2nc3c([nH]2)c(=O)n(C)c(=O)n3C)cc1 | -10.1
35 | COc1cccc(NC(=O)c2cccc(OC)c2OC)c1 | -0.56
36 | CCOCCCNC(=O)c1ccc(N(C)S(=O)(=O)c2ccc(OC)cc2)cc1 | 8.62
37 | O=C(O)Cc1ccc(-c2ccccc2-c2ccccc2)cc1 | 6.8
38 | CC(C)N(C(=O)COC(=O)CNC(=O)c1ccc(Br)cc1)c1ccccc1 | -15.5
39 | CNS(=O)(=O)c1cc2c3c(cccc3c1)C(=O)NC2=O | 11.9
40 | COc1ccc(C(=O)n2c(SC)nc3cc4c(cc32)OCCO4)cc1 | 12
41 | Oc1c(Cl)cc(Cl)cc1/C=N/c1nccs1 | -11.8
42 | O=C(/C=C/c1ccccc1)OCCN1C(=O)c2ccccc2C1=O | 13.4
43 | COc1ccccc1CNC(=O)C(=O)NCC1OCCN1S(=O)(=O)c1ccc(Br)cc1 (centres unmarked) | -2.19
44 | COc1cccc(/C=C2\SC(=O)N(CCC(=O)N3CCCCC3CCO)C2=O)c1 (centres unmarked) | -14.6
45 | CN(C)c1ccc(/C=N/NC(=O)CNC(=O)/C=C/c2ccccc2)cc1 | 5.26
46 | C1=CC2=NC34CCCCC3CC3=C(CCCC3)N4C2=CC1=NC1CCCCC1 (centres unmarked) | -18.9

Row | Compound | hERG current change (%, negative = inhibition) at 10uM [%]
47 | O=C(Cn1nc(-c2ccc(Cl)cc2)c2ccccc2c1=O)NCC1CCCO1 (centres unmarked) | 5.51
48 | CCS(=O)(=O)NCCNc1ccc([N+](=O)[O-])cc1 | -38.2
49 | O=C(O)COc1ccc(Cl)cc1CO | -0.991
50 | COc1ccc(Cl)cc1NC(=O)Cn1nnc(C(=O)NCCc2ccc(OC)c(OC)c2)c1N | 15
51 | CCOc1ccc(N(CC(=O)Nc2ccccc2OC)S(=O)(=O)c2ccccc2)cc1 | 6.69
52 | Cc1ccc(OC(=O)CCS(=O)(=O)c2ccc(C)cc2)cc1 | -24.4
53 | Cc1cc2c(c(=O)o1)C(Cc1ccccc1)C(C#N)=C(N)O2 (centres unmarked) | 14
54 | CCOC(=O)c1cc(-c2csc(COc3ccccc3)n2)on1 | 3.35
55 | CCOC(=O)Nc1sc2c(c1C(N)=O)CCC(C)C2 (centres unmarked) | 16.4
56 | COc1ccccc1CCNCc1ccc(OC)c(OC)c1OC.O=C(O)C(=O)O | 15.5
57 | Cc1c(NC(=O)C(C)Oc2ccccc2F)c(=O)n(-c2ccccc2)n1C (centres unmarked) | 10.6
58 | Cc1cc(Cl)ccc1NC(=S)N1CCC(C(N)=O)(N2CCCCC2)CC1 | -2.06
59 | O=C(Nc1ccc(S(=O)(=O)Nc2ncccn2)cc1)c1cc([N+](=O)[O-])ccc1Cl | 27.9
60 | COCCCNS(=O)(=O)c1cccc(S(=O)(=O)c2cccc(S(=O)(=O)NCCCOC)c2)c1 | 4.92
61 | Cn1c(SCC(=O)NCCc2ccccc2)nc2c([nH]c3ccccc32)c1=O | 26.4
62 | Cc1ccc(OCC(=O)N/N=C/c2cccc3cccnc23)cc1 | 8.18
63 | Cc1ccc(NS(=O)(=O)c2cc(C(=O)NCc3ccccn3)ccc2Cl)cc1C | -47
64 | COc1cccc(N2[C@@H](CC(C)=O)c3ccccc3S2(=O)=O)c1 | -2.64
65 | COc1cc(/C=N\NC(=O)c2nonc2N)c(OC)cc1Br | 18.5
66 | Cc1nn2c(NCCN(C)C)c3c(nc2c1-c1ccccc1)CCC3 | -26.7
67 | COc1cccc(NC(=O)c2ccc(C(=O)c3ccccc3)o2)c1 | -6.25
68 | CCCCNC(=O)CCc1nc2cccnc2n1Cc1ccc(OC)cc1 | -18.1
69 | C=CC(=O)NC(NC(=O)C=C)c1ccccc1F | 6.81

Row | Compound | hERG current change (%, negative = inhibition) at 10uM [%]
70 | COc1ccc(C(=O)O)cc1S(=O)(=O)N(C)CCc1cccnc1 | 9.95
71 | CC(C)(C)c1ccc(OCC(=O)NNC(=O)c2cccnc2)cc1 | -34.7
72 | CC1CN(Cc2nc3c(c(=O)n(C)c(=O)n3C)n2CCc2ccccc2)CC(C)O1 (centres unmarked) | -16.6
73 | CCn1c(=O)cc(OCC(=O)NC(C)c2ccc3c(c2)OCCO3)c2ccccc21 (centres unmarked) | -4.48
74 | CC(C)(C)C(=O)Nc1ccc(C(=O)OC2CCCCC2)cc1 | -12.2
75 | COC(=O)C1=C(c2ccc(F)cc2OCc2ccccc2)C[C@@H]2CC[C@H]1N2C | -52
76 | Nc1nc(-c2sc3nc4c(cc3c2N)CCCC4)nc(N2CCOCC2)n1 | 27.1
77 | CCOC(=O)Cn1cc(C#N)c(=O)[nH]c1=O | -17.8
78 | Cc1cc(N2CCN(C)CC2)nc2ccc(NC(=O)CCC(=O)N3CCN(c4ccc([N+](=O)[O-])cc4)CC3)cc12 | 17.9
79 | COC(=O)c1ccccc1S(=O)(=O)N1CCC(C(=O)OCC(=O)c2ccccc2OC)CC1 | -16.8
80 | NNC(=O)/C(=C\c1ccco1)NC(=O)c1ccco1 | -2.75
81 | CC(C)c1cn(C2OC(COC(=O)c3ccccc3)C(OC(=O)c3ccccc3)C2OC(=O)c2ccccc2)c(=O)[nH]c1=O (centres unmarked) | 16.7
82 | Clc1ccccc1-c1nc(-c2ccc(Br)o2)no1 | 17.4
83 | CCN1CCN(C(=O)COc2ccc(S(=O)(=O)N(C)Cc3ccccc3)cc2)CC1 | -45.7
84 | CCOc1ccc(C(=O)CSCC(=O)O)cc1 | 16
85 | CN1CCN(NC(=O)CN2C(=O)S/C(=C\c3c(Cl)cccc3Cl)C2=O)CC1 | -5.45
86 | O=C(Nc1ccc(CN2CCOCC2)cc1)c1cccc(-c2cc3ccccc3oc2=O)c1 | -21.5
87 | O=C(O)C(=O)O.O=S(=O)(c1ccccc1C(F)(F)F)N1CCN(CC(O)COc2ccccc2F)CC1 (centres unmarked) | 23
88 | Cc1ccccc1CN1CCCNC1=O | 11.5
89 | NC1=NC2(CCCCC2)N=C(Nc2ccc(F)cc2F)N1 | 4.19
